Screen size: about 2,000 compounds; about 110 (5.5%) showed an effect of 50% or more. This is one part of the list.

This experiment has as its target Genome polyprotein (dengue virus type 2) (UniProt P29990).
The mark [1] stands for this setting: Thailand/16681/1984, Concentration 25.0 uM, Number of replicates 1.0.

As usually defined, the inhibition is the change of the read-out against control, counted positive when it falls. `Cc1cnccc1NC(=O)c1cccc(-c2nccs2)c1`: the inhibition is -3.63% (Thailand/16681/1984, Concentration 49.5 uM, Number of replicates 2.0, Standard deviation 4.204363846532359 %); -0.191% (Thailand/16681/1984, Concentration 99.01 uM, Number of replicates 2.0, Standard deviation 2.2108405026778724 %); 0.611% (Thailand/16681/1984, Concentration 198.0 uM, Number of replicates 2.0, Standard deviation 1.9886941158052591 %).
With `CC(C)(CO)NC(=O)c1cc(Cl)cc(NC(=O)Cc2cccnc2)c1`, the inhibition reads like this: (Thailand/16681/1984, Concentration 49.5 uM, Number of replicates 2.0, Standard deviation 2.592685808271054 %) -2.73%; (Thailand/16681/1984, Concentration 99.01 uM, Number of replicates 2.0, Standard deviation 0.26050899629625984 %) -2.67%; (Thailand/16681/1984, Concentration 198.0 uM, Number of replicates 2.0, Standard deviation 0.9505923281944691 %) -2.17%.
Turning to `CN(Cc1cccc(F)c1F)C(=O)C1CCN(c2ccc(C=O)cc2)CC1`, the inhibition under setting [1] is 14.5%.
With `CC(=O)N[C@H](C(=O)Nc1cccc(C(N)=O)c1)c1ccc(OCc2ccccc2)cc1`, the inhibition runs as follows: (Thailand/16681/1984, Concentration 49.5 uM, Number of replicates 2.0, Standard deviation 1.41100239398505 %) -2.21%; (Thailand/16681/1984, Concentration 99.01 uM, Number of replicates 2.0, Standard deviation 6.402498423083348 %) 0.486%; (Thailand/16681/1984, Concentration 198.0 uM, Number of replicates 2.0, Standard deviation 5.599350943845451 %) 0.73%.
On to `O=Cc1ccc(N2CCC(C(=O)N3CCC(c4ccncc4)CC3)CC2)cc1`, for which the inhibition under setting [1] turned out to be 14.2%.
As to `Cc1cc(CO)c2cccc(CC(=O)N3CCO[C@@H](CN)C3)c2n1`, the inhibition by setting is: (Thailand/16681/1984, Concentration 49.95 uM, Number of replicates 2.0, Standard deviation 2.313340500291457 %) -1.6%; (Thailand/16681/1984, Concentration 99.9 uM, Number of replicates 2.0, Standard deviation 6.901214410786329 %) 6.49%.
Turning to `c1ccc2c([C@H]3CCN(Cc4ccn[nH]4)C3)c[nH]c2c1`, the inhibition was -4.83% (Thailand/16681/1984, Concentration 49.5 uM, Number of replicates 2.0, Standard deviation 1.3804677608821805 %); -4.86% (Thailand/16681/1984, Concentration 99.01 uM, Number of replicates 2.0, Standard deviation 0.8353970676066758 %); -3.79% (Thailand/16681/1984, Concentration 198.0 uM, Number of replicates 2.0, Standard deviation 1.6563547935009133 %).
Consider `O=Cc1ccc(N2CCC(C(=O)Nc3nnc(C(F)(F)F)s3)CC2)cc1`, for which, under setting [1], the inhibition was 12.7%.
Same read-out and setting: as for `O=Cc1ccc(N2CCC(C(=O)N[C@H](CO)[C@H](O)c3ccc([N+](=O)[O-])cc3)CC2)cc1`, the figure is 13.1%; as for `O=Cc1ccc(N2CCC(C(=O)NCCNC(=O)c3ccc(F)cc3)CC2)cc1`, 14.8%.
Regarding `CC(C)Nc1nc2ccc(C(=O)NCc3cnn(C)c3)cc2[nH]1`, the inhibition runs as follows: (Thailand/16681/1984, Concentration 49.5 uM, Number of replicates 2.0, Standard deviation 2.4534347281334856 %) -3.32%; (Thailand/16681/1984, Concentration 99.01 uM, Number of replicates 2.0, Standard deviation 2.252490861313308 %) -2.73%; (Thailand/16681/1984, Concentration 198.0 uM, Number of replicates 2.0, Standard deviation 1.9859869815785558 %) -2.52%.
On to `CNC(=O)C1(CNS(=O)(=O)c2ccc(Oc3ccccc3Cl)cc2)CCCC1`, for which the inhibition by setting is: (Thailand/16681/1984, Concentration 49.5 uM, Number of replicates 2.0, Standard deviation 0.8825067918234245 %) -2.79%; (Thailand/16681/1984, Concentration 99.01 uM, Number of replicates 2.0, Standard deviation 1.1142183638187368 %) -1.51%; (Thailand/16681/1984, Concentration 198.0 uM, Number of replicates 2.0, Standard deviation 0.3423230124618678 %) 0.279%.
For `Cc1cc(CO)c2cccc(Cc3cccc(NC(=O)c4nc(C5CCNCC5)oc4C)c3)c2n1`, the inhibition reads like this: (Thailand/16681/1984, Concentration 49.95 uM, Number of replicates 2.0, Standard deviation 2.427412589513284 %) -2.68%; (Thailand/16681/1984, Concentration 99.9 uM, Number of replicates 2.0, Standard deviation 2.040383474434353 %) -3.1%.
For `O=Cc1ccc(N2CCC(C(=O)N(Cc3ccc4c(c3)OCO4)C3CCCC3)CC2)cc1`, under setting [1], the inhibition worked out at 15.8%.
As for `c1ccc2c([C@H]3CCN(Cc4cn[nH]c4)C3)c[nH]c2c1`, the inhibition runs as follows: (Thailand/16681/1984, Concentration 49.5 uM, Number of replicates 2.0, Standard deviation 0.9115794139717239 %) -0.8%; (Thailand/16681/1984, Concentration 99.01 uM, Number of replicates 2.0, Standard deviation 0.44265802393203485 %) -0.949%; (Thailand/16681/1984, Concentration 198.0 uM, Number of replicates 2.0, Standard deviation 0.8695579523351499 %) 0.351%.
For `Cc1cc(CO)c2cccc(Cc3cccc(NC(=O)Cc4c[nH]c5ccccc45)c3)c2n1`, the inhibition is, setting by setting: (Thailand/16681/1984, Concentration 49.95 uM, Number of replicates 2.0, Standard deviation 0.8412168519630298 %) -0.469%; (Thailand/16681/1984, Concentration 99.9 uM, Number of replicates 2.0, Standard deviation 1.20193607081355 %) 3.26%.
As to `O=C(NCc1n[nH]c2c1CCCC2)[C@@]1(c2ccc(F)cc2)CCCNC1`, the inhibition was -2.05% (Thailand/16681/1984, Concentration 49.5 uM, Number of replicates 2.0, Standard deviation 2.075637416605533 %); -1.46% (Thailand/16681/1984, Concentration 99.01 uM, Number of replicates 2.0, Standard deviation 0.06871580034367653 %); -0.123% (Thailand/16681/1984, Concentration 198.0 uM, Number of replicates 2.0, Standard deviation 0.6981737355712393 %).
On to `CCc1noc([C@@H](C)n2cc(C3CCNCC3)c(C)n2)n1`, for which the inhibition (Thailand/16681/1984, Concentration 49.5 uM, Number of replicates 2.0, Standard deviation 2.2002562489050286 %) is -3.46%; the inhibition (Thailand/16681/1984, Concentration 99.01 uM, Number of replicates 2.0, Standard deviation 0.4258731679531168 %) is -3.6%; the inhibition (Thailand/16681/1984, Concentration 198.0 uM, Number of replicates 2.0, Standard deviation 1.1449005951850917 %) is -3.94%.
As to `Cc1cnccc1NC(=O)c1cccn(CC2CCNCC2)c1=O`, the inhibition (Thailand/16681/1984, Concentration 49.5 uM, Number of replicates 2.0, Standard deviation 1.0139655097272078 %) is 3.41%; the inhibition (Thailand/16681/1984, Concentration 99.01 uM, Number of replicates 2.0, Standard deviation 0.45414409382246623 %) worked out at 8.44%; the inhibition (Thailand/16681/1984, Concentration 198.0 uM, Number of replicates 2.0, Standard deviation 0.4741958784700092 %) was 16.8%.
`O=C(Cc1cc2ccccc2[nH]1)NCc1cn2ccccc2n1`: the inhibition by setting is: (Thailand/16681/1984, Concentration 49.5 uM, Number of replicates 2.0, Standard deviation 1.8228117907928092 %) -0.696%; (Thailand/16681/1984, Concentration 99.01 uM, Number of replicates 2.0, Standard deviation 0.2647063587926113 %) 1.18%; (Thailand/16681/1984, Concentration 198.0 uM, Number of replicates 2.0, Standard deviation 0.44504054313150715 %) 2.28%.

The values are drawn from ChEMBL document CHEMBL5606460, “ASAP - DENV-2 NS2B-NS3 protease fluorescence single point” (2024).
